This note sets out measurements from the supplement of paper PMC3334620.

Whole data set: some 33,000 sequences, median “E-score (-0.5 to 0.5)” near -0.013, cut for the highest 2% near 0.3. Some of the results follow.

The experiment deals with T1, Msn1 (UniProt P22148).
T1 sequence: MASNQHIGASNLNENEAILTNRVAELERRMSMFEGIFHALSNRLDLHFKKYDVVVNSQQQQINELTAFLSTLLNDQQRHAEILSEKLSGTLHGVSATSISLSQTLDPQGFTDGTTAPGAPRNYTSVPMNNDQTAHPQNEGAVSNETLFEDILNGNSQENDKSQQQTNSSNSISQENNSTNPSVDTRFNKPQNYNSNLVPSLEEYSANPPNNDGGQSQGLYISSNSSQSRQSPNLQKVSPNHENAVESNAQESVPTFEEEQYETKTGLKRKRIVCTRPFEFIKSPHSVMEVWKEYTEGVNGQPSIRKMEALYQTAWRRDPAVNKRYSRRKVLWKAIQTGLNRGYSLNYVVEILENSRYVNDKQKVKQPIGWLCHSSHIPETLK
The experiment in a line: PBM E-score (8-mer binding enrichment) (E-score (-0.5 to 0.5)); higher = stronger / more preferred TF binding; most listed sequences are background and not binding sites. Particulars: protein concentration: 200 nM; construct: GST-full length. As to the method: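 Universal 'all 10-mer' protein binding microarrays (Agilent AMADID 015681) probed with GST-tagged S. cerevisiae TFs (full-length or DBD) made by in vitro transcription/translation (PURExpress), about 100-200 nM. Bound TF was detected with fluorescent anti-GST. Each ungapped 8-mer (which stands for itself and its reverse complement) is scored by the PBM enrichment score (E-score), a modified Wilcoxon-Mann-Whitney statistic from -0.5 to +0.5, computed with the Universal PBM Analysis Suite. Scale: above 0.35 generally sequence-specific binding.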
Consider GCTCCCCC, for which the “PBM E-score” value was -0.439.

In the case of CCAAAAAA, the “PBM E-score” value turned out to be 0.253.

For GGAGCGAC, the “PBM E-score” value is 0.0732.

On to GAACTCTA, for which the “PBM E-score” value is -0.00897.

CGTTGGGC: the “PBM E-score” value was -0.214.

Consider AACCAAAG, for which the “PBM E-score” value was found to be 0.132.

For the sequence CCACGGCC, the “PBM E-score” value was -0.207.

Take CTCAAATC: the “PBM E-score” value was -0.119.

As for GCGAACAA, the “PBM E-score” value was found to be 0.198.

On to CCAGGGGG, for which the “PBM E-score” value is -0.409.

Take CCGGGGTA: the “PBM E-score” value is -0.118.

As for ACTGGCCC, the “PBM E-score” value was -0.17.

Turning to AATGTGGG, the “PBM E-score” value is -0.0572.

In the case of AAGAGACA, the “PBM E-score” value came out at 0.288.

For ACCGCCCA, the “PBM E-score” value was -0.152.

With AACAGGGC, the “PBM E-score” value was -0.0687.

In the case of GCGTCTCA, the “PBM E-score” value is -0.163.

For TTACCGAA, the “PBM E-score” value came out at 0.148.

For the sequence ACCTACTA, the “PBM E-score” value was 0.036.

Turning to ACTGTGAG, the “PBM E-score” value was -0.00926.

Take CTATCACA: the “PBM E-score” value is 0.0627.

For the sequence GCTTACCA, the “PBM E-score” value turned out to be 0.0274.

With TGATATCA, the “PBM E-score” value is -0.0826.

With ATAGGATC, the “PBM E-score” value was found to be 0.0486.

ATTATGCG: the “PBM E-score” value is 0.141.

CAAACCTA: the “PBM E-score” value was determined as 0.0463.

For AGCATTCC, the “PBM E-score” value was -0.00952.

With CAACATAG, the “PBM E-score” value is -0.0484.

As to CTTTTTTA, the “PBM E-score” value was 0.139.

Regarding GCGATGTA, the “PBM E-score” value turned out to be 0.108.

In the case of AATCAGTA, the “PBM E-score” value is -0.0738.

As to AGTCTGTG, the “PBM E-score” value was 0.0386.

On to GGACGTGA, for which the “PBM E-score” value was 0.047.

On to ACCTCTGC, for which the “PBM E-score” value was -0.027.

Take AGTACCAG: the “PBM E-score” value was -0.0751.

In the case of AATGCTTC, the “PBM E-score” value was -0.018.

As to GAGTAAAC, the “PBM E-score” value is 0.00494.

For GTTAGAAC, the “PBM E-score” value was 0.087.

For AGCTCGGG, the “PBM E-score” value is -0.0806.

Consider ATTACGTA, for which the “PBM E-score” value was found to be 0.115.

As to AATGAGAC, the “PBM E-score” value is -0.109.

Take TCAACCAA: the “PBM E-score” value was -0.0828.

As to GTGGTTCA, the “PBM E-score” value amounted to 0.0668.

With ACCTTGAT, the “PBM E-score” value was -0.0483.

With TGATGTAA, the “PBM E-score” value stood at 0.0977.

Regarding CGTTTGGA, the “PBM E-score” value is 0.0306.

In the case of CTTTGGCC, the “PBM E-score” value worked out at 0.0387.

In the case of TAACCGGA, the “PBM E-score” value is 0.14.

Consider CACTACAC, for which the “PBM E-score” value was -0.0989.

On to AAGCTGCG, for which the “PBM E-score” value amounted to 0.00828.

As for CGGGCATA, the “PBM E-score” value is 0.0289.

Regarding CAACTGCC, the “PBM E-score” value is 0.0612.

On to GGCCTAAC, for which the “PBM E-score” value turned out to be 0.115.

With GCTAGGGA, the “PBM E-score” value was -0.174.

For the sequence TCAGTGAA, the “PBM E-score” value came to 0.0451.

As to ACCTGGCG, the “PBM E-score” value is -0.222.

Take ATCCACCC: the “PBM E-score” value is -0.206.

Regarding CCATGATC, the “PBM E-score” value is -0.136.

On to CCCTAAGA, for which the “PBM E-score” value is -0.0786.

As for ACTGATTG, the “PBM E-score” value was -0.00112.

Turning to AACCTATT, the “PBM E-score” value was -0.0559.

Consider AGGGAACG, for which the “PBM E-score” value is -0.142.

Regarding AGATATAA, the “PBM E-score” value amounted to 0.0626.

As for ATCGTTCA, the “PBM E-score” value was -0.0729.

Take CTTTTTCA: the “PBM E-score” value turned out to be 0.00105.

With CCAAGACC, the “PBM E-score” value is -0.0429.

CTAAAGAC: the “PBM E-score” value was 0.0581.

Turning to AGCTATAA, the “PBM E-score” value is -0.0523.

As to CGGGGAAG, the “PBM E-score” value was -0.204.

For the sequence ATGAGCAC, the “PBM E-score” value was -0.0845.

As to ACGTGAAG, the “PBM E-score” value was determined as 0.0431.

On to CAGCGAGA, for which the “PBM E-score” value was -0.234.

Regarding CCACGTAC, the “PBM E-score” value was found to be 0.0149.

Regarding AAAAATCC, the “PBM E-score” value is -0.0571.

As for GATCCAGC, the “PBM E-score” value was -0.25.

ATTCTGGC: the “PBM E-score” value was -0.0721.

Take AAAGAAAC: the “PBM E-score” value turned out to be 0.205.

For ACACTGAT, the “PBM E-score” value turned out to be 0.00132.

As for GTGTTTGA, the “PBM E-score” value was 0.154.

CCCAGTTC: the “PBM E-score” value is -0.0399.

For GGAGCCGA, the “PBM E-score” value was -0.0414.

Turning to AAGTATTG, the “PBM E-score” value came to 0.0345.

Take TGTCCACA: the “PBM E-score” value was 0.455.

As to TATTTGCA, the “PBM E-score” value came to 0.145.

Take CAGCACTA: the “PBM E-score” value is -0.0613.

GCTCCGAA: the “PBM E-score” value is 0.232.

Turning to AGTATTCC, the “PBM E-score” value worked out at 0.0538.

Consider AATCTTCA, for which the “PBM E-score” value is 0.211.

Turning to AGGAAGCC, the “PBM E-score” value was -0.238.

Turning to CGACCCAC, the “PBM E-score” value was -0.208.

Consider GAACGGAC, for which the “PBM E-score” value is -0.0194.

As for AAGCATTG, the “PBM E-score” value was -0.0998.

For the sequence GTGGAGCA, the “PBM E-score” value was -0.158.

As for AAGGGTAC, the “PBM E-score” value was -0.136.
